In paper PMC8886540 (The EMBO Journal, 2022):

Molecular target: Candida albicans actin (C. albicans, UniProt P14235 1-376)
Assay: fluorescence microscopy of a labelled protein on reconstituted actin networks

UniProt P14235, sequence (P14235 whole entry): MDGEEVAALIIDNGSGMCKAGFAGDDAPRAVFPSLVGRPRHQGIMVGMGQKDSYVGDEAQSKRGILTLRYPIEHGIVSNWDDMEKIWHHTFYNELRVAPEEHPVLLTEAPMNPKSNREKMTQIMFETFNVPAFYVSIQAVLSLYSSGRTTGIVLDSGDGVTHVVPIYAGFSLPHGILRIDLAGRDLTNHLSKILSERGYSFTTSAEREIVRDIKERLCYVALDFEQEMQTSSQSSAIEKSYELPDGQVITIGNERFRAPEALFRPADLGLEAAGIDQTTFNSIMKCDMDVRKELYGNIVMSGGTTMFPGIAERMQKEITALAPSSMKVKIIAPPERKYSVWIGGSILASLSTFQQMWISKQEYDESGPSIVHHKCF

B1: Alexa-488-labeled S. cerevisiae ADF/cofilin D34C (natural protein)
chain: not shown
modifications: Alexa Fluor 488 C5-maleimide
binding result: binds
